Some of the results follow. At the low end of the ranking the order means little.
What follows are sequences tested against GST-SBP-SLBP (stem-loop binding protein) (UniProt Q14493) (assay: targeted RNA Bind-n-Seq). Conditions: RBNS binding buffer: 25 mM Tris pH 7.5, 150 mM KCl, 3 mM MgCl2, 0.1% Tween, 0.5 mg/mL BSA, 1 mM DTT; 27 nM protein, 750 pM RNA pool; temperature not stated; high values mean tight binding.
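Also: DESeq read counts versus GST-SBP nonspecific binding control pulldown.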

Question: “GGUCACGUCUCAAUCAACUCAUUAGAGGGGGGGAAAACCCCUUUGCCCUCAUUUUCAACAGCUCGCAGUCAAG” was tested. Which binding signal (log2 fold change) did it give?
Answer: Its binding signal (log2 fold change) is 0.018.

Question: With “GGUCACGUCUCAAUCAACUCAUCCUCCAGGGAAAACCCUGGCUUUUUCAACAGCUCGCAGUCAAG” as the sequence, how does the binding signal (log2 fold change) read?
Answer: The binding signal (log2 fold change) was -0.0594.

Question: How did the binding signal (log2 fold change) turn out when “GGUCACGUCUCAAUCAACUCAUCUUCAGGAGUUUUCUCCUGCUAAUUCAACAGCUCGCAGUCAAG” was run?
Answer: The binding signal (log2 fold change) was 0.205.

Question: “GGUCACGUCUCAAUCAACUCAUCAGAGGGGGGGAAAACCCCUUUACCCUCAUACUCAACAGCUCGCAGUCAAG” was tested. Which binding signal (log2 fold change) did it give?
Answer: Its binding signal (log2 fold change) is -0.218.

Question: With “GGUCACGUCUCAAUCAACUCUUCGUCCAGGGAAAGCCCUGGCAAAUUCAACAGCUCGCAGUCAAG” as the sequence, how does the binding signal (log2 fold change) read?
Answer: The binding signal (log2 fold change) was -0.141.

Question: Which binding signal (log2 fold change) does the source give for “GGUCACGUCUCAAUCAACUCAAUCUCCAGGGAAAGCCCUGGUAUACUCAACAGCUCGCAGUCAAG” here?
Answer: Its binding signal (log2 fold change) is 0.189.

Question: How did the binding signal (log2 fold change) turn out when “GGUCACGUCUCAAUCAACUCUUCAGAGGGGGGGAAAACCCCUUUACCCUCCCAUUCAACAGCUCGCAGUCAAG” was run?
Answer: The binding signal (log2 fold change) was -0.063.

Question: “GGUCACGUCUCAAUCAACUCUUUUUCAGGAGUUUCCUCCUGUUUUCUCAACAGCUCGCAGUCAAG” was tested. Which binding signal (log2 fold change) did it give?
Answer: The binding signal (log2 fold change) was 0.0769.

Question: How did the binding signal (log2 fold change) turn out when “GGUCACGUCUCAAUCAACUCUUCCUCAGGAGUUUUCUCCUGCAUAUUCAACAGCUCGCAGUCAAG” was run?
Answer: The binding signal (log2 fold change) was 0.0455.

Question: Which binding signal (log2 fold change) does the source give for “GGUCACGUCUCAAUCAACUCAUCCCCCAGGGAAAACCCUGGCUUAUUCAACAGCUCGCAGUCAAG” here?
Answer: The binding signal (log2 fold change) was -0.0245.

Question: With “GGUCACGUCUCAAUCAACUCUAGUCCCAGGGAAACCCCUGGCAAAUUCAACAGCUCGCAGUCAAG” as the sequence, how does the binding signal (log2 fold change) read?
Answer: Its binding signal (log2 fold change) is -0.0685.

Question: How did the binding signal (log2 fold change) turn out when “GGUCACGUCUCAAUCAACUCAACUCCAGGAGUUUUCUCCUGUAUUUUCAACAGCUCGCAGUCAAG” was run?
Answer: The binding signal (log2 fold change) was -0.11.

Question: How did the binding signal (log2 fold change) turn out when “GGUCACGUCUCAAUCAACUCAACUUCCAGGGAAAUCCCUGGCUAAUUCAACAGCUCGCAGUCAAG” was run?
Answer: The binding signal (log2 fold change) was 0.0407.

Question: With “GGUCACGUCUCAAUCAACUCUUCGCCCAGGGAAAGCCCUGGUUAUCUCAACAGCUCGCAGUCAAG” as the sequence, how does the binding signal (log2 fold change) read?
Answer: The binding signal (log2 fold change) was -0.326.

Question: For “GGUCACGUCUCAAUCAACUCAGUUUCAGGAGUUUUCUCCUGCAUAUUCAACAGCUCGCAGUCAAG”, which binding signal (log2 fold change) is on record?
Answer: The binding signal (log2 fold change) was 0.0714.

Question: With “GGUCACGUCUCAAUCAACUCUAUCUCCAGGGAAACCCCUGGUUUUUUCAACAGCUCGCAGUCAAG” as the sequence, how does the binding signal (log2 fold change) read?
Answer: Its binding signal (log2 fold change) is 0.0347.

Question: How did the binding signal (log2 fold change) turn out when “GGUCACGUCUCAAUCAACUCUUCUCCCAGGGAAAACCCUGGCAUUUUCAACAGCUCGCAGUCAAG” was run?
Answer: Its binding signal (log2 fold change) is 0.0216.

Question: For “GGUCACGUCUCAAUCAACUCUUCUUCCAGGGAAAUCCCUGGCAAUCUCAACAGCUCGCAGUCAAG”, which binding signal (log2 fold change) is on record?
Answer: The binding signal (log2 fold change) was 0.0235.

Question: How did the binding signal (log2 fold change) turn out when “GGUCACGUCUCAAUCAACUCUUCAGAGGGGGGGAAAACCCCUUUACCCUCAAUCUCAACAGCUCGCAGUCAAG” was run?
Answer: Its binding signal (log2 fold change) is -0.217.

Question: “GGUCACGUCUCAAUCAACUCAAAAGAGGGGGGGAAAACCCCUUUGCCCUCAUACUCAACAGCUCGCAGUCAAG” was tested. Which binding signal (log2 fold change) did it give?
Answer: Its binding signal (log2 fold change) is 0.192.

Question: For “GGUCACGUCUCAAUCAACUCUAUUUCAGGAGUUUACUCCUGCAAUCUCAACAGCUCGCAGUCAAG”, which binding signal (log2 fold change) is on record?
Answer: Its binding signal (log2 fold change) is 0.143.

Question: For “GGUCACGUCUCAAUCAACUCUAUUUCAGGAGUUUCCUCCUGCUAACUCAACAGCUCGCAGUCAAG”, which binding signal (log2 fold change) is on record?
Answer: The binding signal (log2 fold change) was 0.228.

Question: With “GGUCACGUCUCAAUCAACUCAUCGGAGGGGGGGAAAACCCCUUUACCCUCAAUAUCAACAGCUCGCAGUCAAG” as the sequence, how does the binding signal (log2 fold change) read?
Answer: Its binding signal (log2 fold change) is -0.228.

Question: For “GGUCACGUCUCAAUCAACUCAUUCUCCAGGGAAAGCCCUGGUAUUUUCAACAGCUCGCAGUCAAG”, which binding signal (log2 fold change) is on record?
Answer: The binding signal (log2 fold change) was -0.132.

Question: How did the binding signal (log2 fold change) turn out when “GGUCACGUCUCAAUCAACUCAACAGAGGGGGGGAAAACCCCUUUGCCCUCCACAUCAACAGCUCGCAGUCAAG” was run?
Answer: Its binding signal (log2 fold change) is -0.464.

Question: With “GGUCACGUCUCAAUCAACUCAAGUCCCAGGGAAAACCCUGGUUUAUUCAACAGCUCGCAGUCAAG” as the sequence, how does the binding signal (log2 fold change) read?
Answer: Its binding signal (log2 fold change) is -0.105.

Question: Which binding signal (log2 fold change) does the source give for “GGUCACGUCUCAAUCAACUCUAUAGAGGGGGGGAAAACCCCUUUACCCUCGUCUUCAACAGCUCGCAGUCAAG” here?
Answer: Its binding signal (log2 fold change) is -0.53.

Question: Which binding signal (log2 fold change) does the source give for “GGUCACGUCUCAAUCAACUCUUCUUCCAGGGAAAGCCCUGGCUAUGUCAACAGCUCGCAGUCAAG” here?
Answer: The binding signal (log2 fold change) was 0.127.

Question: How did the binding signal (log2 fold change) turn out when “GGUCACGUCUCAAUCAACUCAAUCUCCAGGGAAACCCCUGGUAAACUCAACAGCUCGCAGUCAAG” was run?
Answer: The binding signal (log2 fold change) was 0.353.

Question: For “GGUCACGUCUCAAUCAACUCAAUUUCCAGGGAAAACCCUGGCAUAUUCAACAGCUCGCAGUCAAG”, which binding signal (log2 fold change) is on record?
Answer: The binding signal (log2 fold change) was 0.0143.

Question: “GGUCACGUCUCAAUCAACUCAUCUUCCAGGGAAAACCCUGGUAAAUUCAACAGCUCGCAGUCAAG” was tested. Which binding signal (log2 fold change) did it give?
Answer: Its binding signal (log2 fold change) is -0.264.

Question: “GGUCACGUCUCAAUCAACUCUUCUUCAGGAGUUUUCUCCUGUAAAUUCAACAGCUCGCAGUCAAG” was tested. Which binding signal (log2 fold change) did it give?
Answer: Its binding signal (log2 fold change) is 0.0221.

Question: “GGUCACGUCUCAAUCAACUCUUCAGAGGGGGGGAAAACCCCUUUGCCCUCAUCUUCAACAGCUCGCAGUCAAG” was tested. Which binding signal (log2 fold change) did it give?
Answer: The binding signal (log2 fold change) was -0.555.

Question: How did the binding signal (log2 fold change) turn out when “GGUCACGUCUCAAUCAACUCAUCUUCAGGAGUUUCCUCCUGCAUAUUCAACAGCUCGCAGUCAAG” was run?
Answer: Its binding signal (log2 fold change) is -0.0541.

Question: For “GGUCACGUCUCAAUCAACUCAAUCUCAGGAGUUUACUCCUGUUUUUUCAACAGCUCGCAGUCAAG”, which binding signal (log2 fold change) is on record?
Answer: Its binding signal (log2 fold change) is 0.00748.

Question: Which binding signal (log2 fold change) does the source give for “GGUCACGUCUCAAUCAACUCUUUUCCAGGAGUUUUCUCCUGUAUAUUCAACAGCUCGCAGUCAAG” here?
Answer: The binding signal (log2 fold change) was 0.0311.

Question: For “GGUCACGUCUCAAUCAACUCAUUCUCCAGGGAAAUCCCUGGUAAACUCAACAGCUCGCAGUCAAG”, which binding signal (log2 fold change) is on record?
Answer: Its binding signal (log2 fold change) is -0.0121.

Question: For “GGUCACGUCUCAAUCAACUCUUCCUCAGGAGUUUCCUCCUGCAUAUUCAACAGCUCGCAGUCAAG”, which binding signal (log2 fold change) is on record?
Answer: Its binding signal (log2 fold change) is -0.184.

Question: “GGUCACGUCUCAAUCAACUCUAUUUCAGGAGUUUACUCCUGUUAAUUCAACAGCUCGCAGUCAAG” was tested. Which binding signal (log2 fold change) did it give?
Answer: Its binding signal (log2 fold change) is -0.0421.

Question: How did the binding signal (log2 fold change) turn out when “GGUCACGUCUCAAUCAACUCACUAGAGGGGGGGAAAACCCCUUUACCCUCACACUCAACAGCUCGCAGUCAAG” was run?
Answer: Its binding signal (log2 fold change) is -0.339.

Question: Which binding signal (log2 fold change) does the source give for “GGUCACGUCUCAAUCAACUCAUCUCCAGGAGUUUGCUCCUGCUAUCUCAACAGCUCGCAGUCAAG” here?
Answer: The binding signal (log2 fold change) was 0.0466.

Question: Which binding signal (log2 fold change) does the source give for “GGUCACGUCUCAAUCAACUCAUGUCCAGGAGUUUACUCCUGCUAUCUCAACAGCUCGCAGUCAAG” here?
Answer: The binding signal (log2 fold change) was 0.0724.

Question: “GGUCACGUCUCAAUCAACUCAAGUCCCAGGGAAACCCCUGGUUUAUUCAACAGCUCGCAGUCAAG” was tested. Which binding signal (log2 fold change) did it give?
Answer: The binding signal (log2 fold change) was -0.363.

Question: How did the binding signal (log2 fold change) turn out when “GGUCACGUCUCAAUCAACUCAUUUCCCAGGGAAAACCCUGGCAAUCUCAACAGCUCGCAGUCAAG” was run?
Answer: Its binding signal (log2 fold change) is 0.0545.

Question: Which binding signal (log2 fold change) does the source give for “GGUCACGUCUCAAUCAACUCAUUCCCCAGGGAAAGCCCUGGCUUAUUCAACAGCUCGCAGUCAAG” here?
Answer: Its binding signal (log2 fold change) is -0.261.

Question: For “GGUCACGUCUCAAUCAACUCUUAGGAGGGGGGGAAAACCCCUUUACCCUCAUCAUCAACAGCUCGCAGUCAAG”, which binding signal (log2 fold change) is on record?
Answer: The binding signal (log2 fold change) was -0.0524.

Question: With “GGUCACGUCUCAAUCAACUCAUCUUCCAGGGAAAACCCUGGCUAACUCAACAGCUCGCAGUCAAG” as the sequence, how does the binding signal (log2 fold change) read?
Answer: Its binding signal (log2 fold change) is 0.0398.
